# Over roughly 33,000 sequences, “E-score (-0.5 to 0.5)” has its median near -0.035; the highest 2% begin near 0.35. Some of the results follow.
# Target: T1, Pdr3 (UniProt P33200)
# T1 sequence: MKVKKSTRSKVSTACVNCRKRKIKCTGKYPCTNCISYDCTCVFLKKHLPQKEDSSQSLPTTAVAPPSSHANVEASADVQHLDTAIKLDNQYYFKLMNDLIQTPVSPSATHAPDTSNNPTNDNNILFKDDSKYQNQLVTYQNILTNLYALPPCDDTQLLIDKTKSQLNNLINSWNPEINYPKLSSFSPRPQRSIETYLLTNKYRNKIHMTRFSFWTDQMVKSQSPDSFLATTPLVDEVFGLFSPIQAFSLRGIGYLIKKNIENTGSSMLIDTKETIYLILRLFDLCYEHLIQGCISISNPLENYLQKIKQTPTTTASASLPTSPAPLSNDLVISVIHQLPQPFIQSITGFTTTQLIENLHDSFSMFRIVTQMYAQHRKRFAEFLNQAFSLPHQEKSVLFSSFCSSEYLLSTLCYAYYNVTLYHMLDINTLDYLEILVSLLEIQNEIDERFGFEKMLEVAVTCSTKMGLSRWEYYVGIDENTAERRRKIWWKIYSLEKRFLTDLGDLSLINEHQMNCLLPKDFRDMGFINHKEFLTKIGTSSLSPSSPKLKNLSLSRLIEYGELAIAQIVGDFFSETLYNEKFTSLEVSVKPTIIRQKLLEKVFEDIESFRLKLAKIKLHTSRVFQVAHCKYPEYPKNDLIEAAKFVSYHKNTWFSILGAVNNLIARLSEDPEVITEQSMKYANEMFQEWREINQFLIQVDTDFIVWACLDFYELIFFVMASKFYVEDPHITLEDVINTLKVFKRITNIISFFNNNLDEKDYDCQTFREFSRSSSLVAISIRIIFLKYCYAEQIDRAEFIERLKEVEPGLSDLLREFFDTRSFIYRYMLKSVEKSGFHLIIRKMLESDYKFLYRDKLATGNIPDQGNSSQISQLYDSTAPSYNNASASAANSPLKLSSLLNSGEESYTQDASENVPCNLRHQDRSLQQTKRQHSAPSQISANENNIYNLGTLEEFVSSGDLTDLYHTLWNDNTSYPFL
# Experiment: PBM E-score (8-mer binding enrichment) (E-score (-0.5 to 0.5)); higher = stronger / more preferred TF binding; most listed sequences are background and not binding sites
# Details: protein concentration: 200 nM; construct: GST-full length
# How it was run: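 Masliner-normalised scans of fluorescent anti-GST signal were the basis for scoring. That signal came from GST-tagged yeast transcription factors applied at about 100-200 nM to double-stranded universal all-10-mer Agilent arrays on fresh or once-stripped slides. Each ungapped eight-base word, pooled with its reverse complement, received an E-score from the Universal PBM Analysis Suite.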
row,Sequence,PBM E-score
1,TGATATCA,-0.267
2,ATTATGCG,0.233
3,ATAGGATC,-0.128
4,ACTGTGAG,-0.0549
5,CTATCACA,-0.116
6,GCTTACCA,-0.0565
7,CAAACCTA,-0.09
8,AGCATTCC,0.238
9,CTTTTTTA,-0.0672
10,CAACATAG,-0.144
11,CTCAAATC,-0.145
12,AACCAAAG,-0.149
13,CCACGGCC,0.0766
14,CCAGGGGG,-0.205
15,CCGGGGTA,0.341
16,AATGTGGG,-0.0168
17,ACTGGCCC,0.0736
18,GCGAACAA,0.254
19,GCGTCTCA,-0.177
20,ACCGCCCA,0.0538
21,AAGAGACA,0.0812
22,AACAGGGC,-0.116

row,Sequence,PBM E-score
1,AATGAGAC,-0.132
2,TCAACCAA,-0.013
3,ACCTTGAT,0.00904
4,TGATGTAA,-0.0541
5,GTGGTTCA,0.0321
6,TAACCGGA,0.308
7,CACTACAC,-0.0862
8,CGTTTGGA,0.021
9,CTTTGGCC,-0.0664
10,CGGGCATA,0.0796
11,AAGCTGCG,-0.0451
12,AATCAGTA,-0.0622
13,GCGATGTA,-0.0622
14,AGTACCAG,-0.0418
15,AGTCTGTG,-0.193
16,GGACGTGA,-0.0735
17,ACCTCTGC,-0.197
18,AATGCTTC,-0.0412
19,GAGTAAAC,-0.0241
20,ATTACGTA,0.0362
21,GTTAGAAC,-0.0252
22,AGCTCGGG,0.241

row,Sequence,PBM E-score
1,CGTTACAC,-0.0938
2,ATTACACC,-0.114
3,CTACGCAC,-0.177
4,GGTGTCCA,0.0211
5,ACTGAAAG,-0.0726
6,CCCTTGGA,-0.00729
7,CCAGCGTA,-0.122
8,GCGTTTCA,-0.135
9,CCAGTACC,0.0713
10,GAGTAGTA,-0.034
11,CCTACCCG,0.178
12,CACATAGC,-0.00643
13,AGCCGGGG,0.152
14,CGATCGAA,0.0687
15,ATGGCGCA,0.153
16,AATCCGCG,0.388
17,ACTATTTA,0.204
18,CATCTGAC,-0.151
19,CTACTTAC,-0.312
20,AATTCTGT,0.0536
21,GCCGAACC,0.129
22,AACAATTA,0.219

row,Sequence,PBM E-score
1,GGTGGGAC,-0.132
2,AACTATCC,0.151
3,AGCTATGC,-0.331
4,CAATGGCA,-0.0775
5,AATCTTCA,0.0253
6,CGACCCAC,-0.00081
7,AGGAAGCC,-0.0295
8,AAGCATTG,-0.219
9,GAACGGAC,0.259
10,AGGAGATC,0.0413
11,AGCCTTAA,-0.174
12,AAGGGTAC,-0.2
13,AACAAGTG,-0.111
14,GTGGAGCA,-0.104
15,AAGTATTG,-0.109
16,CCCAGTTC,0.188
17,GGAGCCGA,0.152
18,TATTTGCA,-0.108
19,TGTCCACA,0.0302
20,ACACTGAT,-0.25
